The campaign covered roughly 360,000 compounds. About 6,000 (1.7%) were called active. The shares of active, inactive and inconclusive entries below differ from those in the screen. Calls follow the shape of the dose curve; as a rule, active = well fitted cell-killing curve with a large enough effect; inconclusive = small, poorly fitted or top-dose-only effect, or effect the other way; inactive = flat fitted curve, though single readings scatter. Potencies of inconclusive entries are left out as doubtful fits.
Assay: qHTS for induction of synthetic lethality in tumor cells producing 2HG: qHTS for the HT-1080-NT fibrosarcoma cell line;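 also: NT is the 2HG producing partner of a matched IDH1 knockdown line; nearly all actives have a fitted effect of over 55% in size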;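 as to activity, negative = less viability: 0% = DMSO-treated cells and -100% = media-only wells without cells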
Conditions: HT-1080-NT fibrosarcoma viability, CellTiter-Glo ATP luminescence, 48 h; activity, negative = less viability: at 46.1 µM (top of the series) unless noted
In short: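 HT-1080-NT; 750 cells/well; 5% FBS RPMI; 48 h compound, 37 degrees C; CellTiter-Glo luminescence; curve fitting and curve-class assignment.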
With `CCNC(=O)COC(=O)CCNC(=O)c1ccc(Cl)cc1` the Potency was “inactive”.
With `CCN(CC)CCOC(=O)c1ccc(NC(=O)CCCN2C(=O)/C(=C\c3cccs3)SC2=S)cc1` the Potency was inconclusive [cytotoxic, single point].
With `COc1ccc(NC(=O)C2(C)Cc3c(-c4cccc(C(N)=O)c4)ccnc3O2)cc1` (stereo unspecified) the Potency was inconclusive [cytotoxic, single point].
For `CCn1c(=O)c(C(=O)CN(C)Cc2cccc(OC)c2OC)c(N)n(Cc2ccccc2)c1=O`, the activity, negative = less viability was inconclusive: 32%.
With `Cc1nc(C(=O)NNC(=O)c2cccc(Cl)c2)c(C(F)(F)F)o1` the Potency was “inactive”.
For `C/C(=N\NC(=O)c1ccc(C)cc1)c1c(C)[nH]n(-c2ccccc2)c1=O`, the Potency was inconclusive [cytotoxic, partial curve, poor fit].
In the case of `Cc1ccc(Nc2nc(NCc3cccs3)nc3ccsc23)c(C)c1`, the Potency is reported as inconclusive [cytotoxic, single point].
For `CC(Sc1nnc(CNc2cccc3ccccc23)n1-c1ccccc1)C(=O)N/N=C/c1ccco1` (stereo unspecified), the Potency was “inactive”.
For `CCOC(=O)c1sc(=S)n(C)c1NC(=O)c1ccc(C(C)(C)C)cc1`, the Potency was inconclusive [cytotoxic, single point].
For `CC(=O)c1ccc(OCc2c(-c3ccccc3)nnn2CC(=O)NS(=O)(=O)c2ccccc2C)cc1`, the Potency was inconclusive [rising, single point].
In the case of `O=[N+]([O-])c1ccc(N/N=C/c2ccccc2)c(F)c1`, the Potency is reported as inconclusive [rising, full curve].
For `CC(C)C[C@H]1COc2cccc(N3CCSCC3)c2S(=O)(=O)N1`, the Potency was “inactive”.
For `O=C1[C@@H](Oc2ccccc2)[C@@H](c2cccnc2)N1c1ccccc1`, the Potency was inconclusive [cytotoxic, single point].
For `O=C(NCC(=O)N1CCN(S(=O)(=O)/C=C/c2ccccc2)CC1)c1ccc(Cl)cc1`, the Potency was “inactive”.
For `CCCCNC(=O)C1(C)CCCCN1Cc1ccc(OCc2ccccc2)cc1` (stereo unspecified), the Potency was inconclusive [cytotoxic, single point].
For `O=C(CCc1c[nH]c2ccccc12)N1CCCC1`, the Potency was inconclusive [rising, partial curve, poor fit].
With `CCCn1c(=O)n(C)c(=O)c2c(SCC(=O)NCC(c3ccccc3)N(C)C)nc(CC(C)C)nc21` (stereo unspecified) the Potency was “inactive”.
In the case of `O=[N+]([O-])c1cc(S(=O)(=O)Nc2ccccc2)ccc1Nc1ccccc1`, the Potency is reported as active: 7.31 µM.
With `O=C1Nc2ccc(Br)cc2/C1=C/C1CC=CCC1` (stereo unspecified) the Potency was inconclusive [cytotoxic, single point].
In the case of `CC(=O)NCCCCCCNC(C)=O`, the Potency is reported as inconclusive [rising, single point].
In the case of `CC(C)(C)c1ccc(/C=C2\Oc3cc(O)ccc3C2=O)cc1`, the Potency is reported as inconclusive [cytotoxic, single point].
In the case of `Oc1ccc(N2CCN(c3nc(-c4cccs4)nc4ccccc34)CC2)cc1`, the Potency is reported as inconclusive [cytotoxic, partial curve].
For `COCCCN(C(=O)c1ccccc1F)c1nc(-c2ccc(OC)cc2)cs1`, the Potency was “inactive”.
For `Cc1cccnc1NC(=O)COc1ccc2c(c1)CCC2`, the Potency was inconclusive [rising, single point].
In the case of `Cc1c(NC(=O)C(C)OC(=O)CCC2CCCC2)c(=O)n(-c2ccccc2)n1C` (stereo unspecified), the Potency is reported as “inactive”.
In the case of `CCn1c(SCC(=O)Nc2ccc3c(c2)c2ccccc2n3CC)nnc1-c1ccco1`, the Potency is reported as inconclusive [cytotoxic, single point].
With `COc1ccccc1C(CCNS(=O)(=O)c1ccc(C)cc1)c1ccco1` (stereo unspecified) the Potency was “inactive”.
For `C(=N\Nc1nc2ccccc2[nH]1)/c1ccc2ncccc2c1`, the Potency was active: 0.651 µM.
With `CC(C)(C)c1cc(S(=O)(=O)CCc2ccccn2)cc(C(C)(C)C)c1F` the Potency was inconclusive [cytotoxic, single point].
In the case of `CC1CN(Cc2nc3ccccc3c(=O)[nH]2)CC(C)O1` (stereo unspecified), the Potency is reported as inconclusive [rising, single point].
For `CC(C)(C)c1ccc(S(=O)(=O)N2CCN(c3nc(-c4cccs4)nc4ccccc34)CC2)cc1`, the Potency was “inactive”.
In the case of `Cc1ccc(O)c(NC(=S)NC(=O)c2ccccc2Cl)c1`, the Potency is reported as inconclusive [cytotoxic, single point].
For `S=C(Nc1cccc(Cl)c1Cl)NC1CCN(Cc2ccccc2)CC1`, the Potency was inconclusive [cytotoxic, single point].
In the case of `Cc1nc(NC(=O)COC(=O)C2CC3CCCC(C2)C3=O)c(Cl)cc1Cl` (stereo unspecified), the Potency is reported as “inactive”.
With `CCn1c(-c2ccoc2C)n[nH]c1=S` the Potency was inconclusive [cytotoxic, single point].
With `O=C(OCn1ncc(Cl)c(Cl)c1=O)c1cccc(C(F)(F)F)c1` the Potency was inconclusive [cytotoxic, single point].
For `CCOCCCNC(=O)c1ccc2nc(-c3ccc(OC)c(OC)c3)c(-c3ccc(OC)c(OC)c3)nc2c1`, the Potency was “inactive”.
With `CC(C)CC(COCc1ccc(Cl)cc1)N1CCN(C(=O)c2ccc(Cl)cc2Cl)CCC1=O` (stereo unspecified) the Potency was inconclusive [cytotoxic, single point].
In the case of `COc1ccc(CCn2c(N)c(C(=O)NCc3ccco3)c3nc4ccccc4nc32)cc1OC`, the Potency is reported as inconclusive [cytotoxic, single point].
For `Cc1ccccc1C(=O)N1CCN(c2ccc(NC(=O)c3ccc([N+](=O)[O-])o3)cc2)CC1`, the Potency was active: 1.3 µM.
In the case of `CCOC(=O)c1c(C)[nH]c(C(=O)N/N=C\c2ccccc2O)c1C`, the Potency is reported as active: 7.31 µM.
In the case of `Nc1c(S(=O)(=O)c2cccs2)c2nc3ccccc3nc2n1Cc1ccc2c(c1)OCO2`, the Potency is reported as inconclusive [cytotoxic, single point].
With `COc1ccc(C(=O)/C=C/N2CCCCC2)cc1OC` the Potency was inconclusive [cytotoxic, single point].
In the case of `Cc1ccc(Cn2ccc(=O)c(OCc3c(Cl)cccc3Cl)c2C)cc1`, the Potency is reported as inconclusive [cytotoxic, single point].
With `CC(C)C1C(=O)N(Cc2cn(CC3CCCCC3)nn2)CCS(=O)(=O)N1Cc1ccc(-c2ccc(F)nc2)cc1` (stereo unspecified) the Potency was inconclusive [cytotoxic, single point].
With `COc1nn(-c2ccccc2)c(=O)c(Cl)c1Cl` the Potency was active: 11.6 µM.
For `C=CCc1ccc(OCC(O)CN2CCN(Cc3ccc(Cl)cc3)CC2)c(OC)c1` (stereo unspecified), the Potency was active: 20.6 µM.
In the case of `COc1ccc(S(=O)(=O)N(C)c2ccc(C(=O)N3CCCC3)cc2)cc1OC`, the Potency is reported as “inactive”.
For `CCOCCCNS(=O)(=O)c1ccc(NC(=O)c2ccccc2)cc1`, the Potency was inconclusive [cytotoxic, single point].
With `Cc1ccc(-n2c(SCc3ccc(C(=O)O)cc3)nnc2-c2ccncc2)cc1` the Potency was “inactive”.
For `CCc1nc2ccc(C(=O)N(C)CCN(C)C)cn2c1N(C)Cc1cc2ccccc2s1`, the Potency was active: 16.4 µM.
For `Cc1cc(C)n(-c2nc(SCCN(C)C)c3c4c(sc3n2)CCCC4)n1`, the Potency was active: 7.94 µM.
In the case of `COc1ccc2nc(NC(=O)C3CCCN(S(=O)(=O)c4cccc5nsnc45)C3)sc2c1` (stereo unspecified), the Potency is reported as “inactive”.
In the case of `CCN1CCN(C(=O)CN(C)S(=O)(=O)c2cc(C)ccc2OC)CC1`, the Potency is reported as inconclusive [rising, single point].
In the case of `COc1ccc(C2CN=NC23CCc2ccccc2C3=O)cc1` (stereo unspecified), the Potency is reported as inconclusive [cytotoxic, partial curve].
In the case of `COCCNc1ncnc2c1ncn2[C@H]1CN(CCOC)C[C@@H](CO)O1`, the Potency is reported as inconclusive [rising, single point].
For `Cc1ccc(CC(=O)NCC(c2ccco2)N(C)C)cc1C` (stereo unspecified), the Potency was “inactive”.
For `CCN(CC)c1ccc(C(=O)NNC(=O)C2CSC3(C)CCC(=O)N23)cc1` (stereo unspecified), the Potency was “inactive”.
For `Cc1ccc(C(=O)CNc2ccc(Br)cc2)cc1`, the Potency was inconclusive [cytotoxic, full curve].
In the case of `Cc1ccc(Nc2c([N+](=O)[O-])c(=O)n(C)c3ccccc23)cc1C`, the Potency is reported as inconclusive [cytotoxic, single point].
For `CC(C)CNC(=O)COC(=O)c1c2c(nc3ccccc13)/C(=C/c1cccs1)CC2`, the Potency was “inactive”.
With `Cc1[nH][nH]c(=O)c1C(c1ccc(-c2cccc(Cl)c2)o1)c1c(C)[nH][nH]c1=O` the Potency was inconclusive [cytotoxic, single point].
With `Cc1nc2ccccn2c1C(=O)NCCCN1CCOCC1` the activity, negative = less viability was inconclusive: 34.8%.
With `O=C(Nc1ccccc1)c1cccnc1N1CCOCC1` the activity, negative = less viability was inconclusive: 10.1%.
For `CCOC(=O)c1c(N/N=C/c2cccnc2)n[nH]c1C`, the Potency was inconclusive [cytotoxic, single point].
In the case of `CCOC(=O)C1=CCC(c2cccs2)N(S(=O)(=O)c2ccc(C)cc2)C1` (stereo unspecified), the Potency is reported as inconclusive [cytotoxic, single point].
With `CCC(CC)C(=O)N(C)c1c(C)nc2c(OCC3CCCCC3)cccn12` the Potency was inconclusive [cytotoxic, single point].
In the case of `CCc1ccc(C(=O)NNc2ccccc2F)cc1`, the Potency is reported as inconclusive [cytotoxic, full curve, poor fit].
For `O=C(NCc1ccccn1)C(=O)Nc1nc(C23CC4CC(CC(C4)C2)C3)cs1`, the Potency was inconclusive [cytotoxic, single point].
In the case of `Cc1nnc(N/N=C/c2cc(C)n(-c3ccc(F)cc3)c2C)n1N`, the Potency is reported as active: 23.1 µM.
With `CCn1cc([N+](=O)[O-])c(C(=O)N2N=C(c3ccc4ccccc4c3)CC2c2ccccc2O)n1` (stereo unspecified) the Potency was active: 23.1 µM.
Potency is read from the fitted curve at half-maximal effect; tags tell the direction and shape of the fitted curve.
